For this test, the system named is NCI-H322M lung. Nature of the test: DTP human tumour cell line panel, 48 h.

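Where inhibition never reached the appropriate level, the endpoint shown equals the highest concentration tested. Otherwise, values were interpolated linearly from a five-concentration, 48-hour dose response in 96-well plates. GI50 marks 50% less growth. TGI denotes the concentration required for complete inhibition of growth.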

One may read the GI50 as the concentration giving 50% growth inhibition. Usually TGI stands for the concentration giving total growth inhibition. The low end stands for more potent growth arrest, the high end for less potent growth arrest. As to `Cc1ccc2c(c1)/C(=C/C(=O)c1cc3ccccc3oc1=O)C(=O)N2`, the GI50 was over 100 µM and the TGI is over 100 µM.
Turning to `COc1c2c(cc3c1C(CCc1ccccc1)N(C)CC3)OCO2` (stereo unspecified), the GI50 was 10.9 µM and the TGI is over 100 µM.
For `COc1ccc(NC(=O)Cn2c(/C=C/c3ccc(N(C)C)cc3)nc3ccccc3c2=O)cc1`, in that order: 18.1 µM and over 100 µM.

Source of the values: PubChem BioAssay (NCI).
